# Test results taken from the supplement of paper PMC12217912.
# This is one part of the list. The full chains were built here from the parent and the listed change. Inactive controls read about 0.05.
# B1: TEV protease; numbered along this chain (parent)
# chain: MGESLFKGPRDYNPISSSICHLTNESDGHTTSLYGIGFGPFIITNKHLFRRNNGTLVVQSLHGVFKVKDTTTLQQHLVDGRDMIIIRMPKDFPPFPQKLKFREPQREERICLVTTNFQTKSMSSMVSDTSCTFPSGDGIFWKHWIQTKDGQCGSPLVSTRDGFIVGIHSASNFTNTNNYFTSVPKNFMELLTNQEAQQWVSGWRLNADSVLWGGHKVFMVKPEEPFQPVKEATQL
# Variants of: B1
# Assay: raw area under fraction-flipped curve 0-4 h after induction (AUC4h, not background-subtracted), DNA-recorder readout of cleavage of the substrate (dimensionless); higher = more cleavage of the substrate by the protease variant
# Conditions: temperature: 34 °C; time window: 0-4 h after rhamnose induction
# 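Also: Bxb1 expression induced with 0.2% (w/v) L-rhamnose at OD600 near 0.5, cultures sampled hourly, flipped fraction per protease–substrate barcode pair counted by paired-end Illumina sequencing.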
Variant,area with substrate ENLYEQS,area with substrate ENLYGQS,area with substrate ENLYHQS,area with substrate ENLYIQS,area with substrate ENLYKQS,area with substrate ENLYLQS,area with substrate ENLYMQS,area with substrate ENLYNQS,area with substrate ENLYPQS,area with substrate ENLYQQS,area with substrate ENLYRQS,area with substrate ENLYTQS,area with substrate ENLYVQS,area with substrate ENLYYQS,area with substrate ENLYDQS,area with substrate ENLYSQS,area with substrate ENLYWQS
MGESLFKGPRDYNPISSSICHLTNESDGHTTSLYGIGFGPFIITNKHLFRRNNGTLVVQSLHGVFKVKDTTTLQQHLVWGRDMIIIRMPKDFPPFPQKLKFREPQREERICLVTTNFQTKSMSSMVSDTSCTFPSGDGIFWKHWIQTKDGQCGSPLVSTRDGFIVGIHSASNFTNTNNYFTSVPKNFMELLTNQEAQQWVSGWRLNADSVLWGGHKVFMVKPEEPFQPVKEATQL [D79W],0.074,0.0523,0.0687,0.0989,0.0808,0.0848,0.0846,0.0709,0.0792,0.0689,0.0706,0.0905,0.104,0.0566,–,–,–
MGESLFKGPRDYNPISSSICHLTNESDGHTTSLYGIGFGQFIITNKHLFRRNNGTLVVQSLHGVFKVKDTTTLQQHLVDGRDMIIIRMPKDFPPFPQKLKFREPQREERICLVTTNFQTKSMSSMVSDTSCTFPSGDGIFWKHWIQTKDGQCGSPLVSTRDGFIVGIHSASNFTNTNNYFTSVPKNFMELLTNQEAQQWVSGWRLNADSVLWGGHKVFMVKPEEPFQPVKEATQL [P40Q],0.0662,0.0661,0.107,0.133,0.0381,0.107,0.0958,0.0746,–,0.0646,–,0.0768,0.162,–,0.0662,0.0717,0.0868
MGESLFKGPRDYNPISSSICHLTNESDGHTTSLYGIGFGPFIITNKHLFRRNNGTLVVQSLHGVFKVKDTTTLQQHLVDGRDMIIIRMPKDFPPFPQKLKFREPQREERICLVTTNFQTKSMSSMVSDTSCEFPSGDGIFWKHWIQTKDGQCGSPLVSTRDGFIVGIHSASNFTNTNNYFTSVPKNFMELLTNQEAQQWVSGWRLNADSVLWGGHKVFMVKPEEPFQPVKEATQL [T132E],0.0494,0.0559,0.0563,0.0625,–,0.0531,0.0536,0.057,0.0649,0.0504,0.0629,0.0484,–,0.0222,–,0.0586,–
MGESLFKGPRDYNPISSSICHLTNESDGHTTSLYGIGFGPFIITNKHLFRRNNGTLVVQSLHGVFKVKDTTTLQQHLVDGRDMIIIRMPKDFPPFPQKLKFREPQREERICLVTTNFQTKSMSSMVSDTSCTFPSGDGIFWKHWIQTKDGQCGSPLVSTRDGFIVGIHSASNFTNTNNYFTSVPKNFMELLTNQEAQQWVSGWRLNADSVLWGGHKVFMVKPEEPQQPVKEATQL [F226Q],0.0413,–,–,–,0.0465,–,–,–,0.0967,0.0635,0.0361,0.075,0.126,–,–,0.0764,0.0724
MGESLFKGPRDYNPISSSICHLTNESDGHTTSLYGIGFGPFIITNKHLFRRNNGTLVVQSLHGVFKVKDTTTLQQHLVDGRHMIIIRMPKDFPPFPQKLKFREPQREERICLVTTNFQTKSMSSMVSDTSCTFPSGDGIFWKHWIQTKDGQCGSPLVSTRDGFIVGIHSASNFTNTNNYFTSVPKNFMELLTNQEAQQWVSGWRLNADSVLWGGHKVFMVKPEEPFQPVKEATQL [D82H],0.0577,–,0.0539,0.0555,0.0602,–,–,0.0664,0.0503,–,0.0543,–,0.0416,–,–,0.0531,0.0167
MGESLFKGPRDYNPISSSICHLTNESDGHTTSLYGIGFGPFIITNKHLFRRNNGTLVVQSLHGVFKVKDTTTLQQHLVDGRDMIIIRMPKDFPPFPQKLKFREPQREERICLVTTNFQTKSMSSMVSDTSCTFPSGDGIFWKHWIQTKDGQCGSPLVSTRDGFIVGIHSASNFTNTNNYFTSVPKNFMELLTNHEAQQWVSGWRLNADSVLWGGHKVFMVKPEEPFQPVKEATQL [Q194H],0.0596,–,0.0841,–,0.0709,–,0.104,0.0649,–,0.0559,0.057,0.0666,0.167,0.077,–,0.0598,–
MGESLFKGPRDYNPISSSICHLTNESGGHTTSLYGIGFGPFIITNKHLFRRNNGTLVVQSLHGVFKVKDTTTLQQHLVDGRDMIIIRMPKDFPPFPQKLKFREPQREERICLVTTNFQTKSMSSMVSDTSCTFPSGDGIFWKHWIQTKDGQCGSPLVSTRDGFIVGIHSASNFTNTNNYFTSVPKNFMELLTNQEAQQWVSGWRLNADSVLWGGHKVFMVKPEEPFQPVKEATQL [D27G],0.0822,–,0.0566,0.111,0.0558,–,0.0026,0.0675,0.0279,–,0.0666,–,0.164,0.0541,–,–,0.065
MGESLFKGPRDYNPISSSICHLTNESDGHTTSLYGIGFGPFIITNKHLFRRNNGTLVVQSLHGVFKVKDTTTLQQHLVDGRDMIIIRMPKDFPPFPQKLKFREPQREERICLVTTNFQTKSMSSMVSDTSCTFPSGDGIWWKHWIQTKDGQCGSPLVSTRDGFIVGIHSASNFTNTNNYFTSVPKNFMELLTNQEAQQWVSGWRLNADSVLWGGHKVFMVKPEEPFQPVKEATQL [F140W],0.078,0.0316,0.0597,0.076,–,–,–,0.0435,–,0.0539,0.0481,–,–,–,–,–,–
MGESLFKGPRDYNPISSSICHLTNESDGHTTSLYGIGFGPFIITNKHLFRRNNGTLVVQSLHGVFKVKDTTTLQQHLVDGRDMIIIRMPKDFPPFPQKLKFREPQREERICLVTTNFQTKSMSSMVSDTSCTFPSGDGIFWKHWIQTKDGQCGSPLVSTRDDFIVGIHSASNFTNTNNYFTSVPKNFMELLTNQEAQQWVSGWRLNADSVLWGGHKVFMVKPEEPFQPVKEATQL [G162D],0.0668,0.0662,–,–,0.0654,–,0.0831,–,0.0717,0.0526,0.0585,–,0.061,0.0727,0.0605,–,–
MGESLFKGPRDYNPISSSICHLTNESDGHTTSLYGIGFYPFIITNKHLFRRNNGTLVVQSLHGVFKVKDTTTLQQHLVDGRDMIIIRMPKDFPPFPQKLKFREPQREERICLVTTNFQTKSMSSMVSDTSCTFPSGDGIFWKHWIQTKDGQCGSPLVSTRDGFIVGIHSASNFTNTNNYFTSVPKNFMELLTNQEAQQWVSGWRLNADSVLWGGHKVFMVKPEEPFQPVKEATQL [G39Y],0.0466,0.0419,0.0369,0.0462,0.0402,–,–,0.0394,0.0378,0.0403,0.069,–,0.0453,–,–,0.0434,0.0353
